Measured values published in PubChem BioAssay AID488969 (Vanderbilt High Throughput Screening Facility, 2010).
Whole data set: some 110,000 compounds, median “z-score” near -0.1, cut for the highest 2% near 2. This is one part of the list. Activity calls are given as the source filed them.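 The calls were made as follows: active = z-score in the third read window above 3 or below -3; inactive = the rest.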

target: Metabotropic glutamate receptor 8 (Rattus norvegicus) (UniProt P70579); test: mGluR8 Gi/Go-coupled signaling modulation – cell-based, rat, thallium flux, HTS, primary screen (AID 488969); conditions: HEK293 rat mGluR8, GIRK (G protein-gated inwardly rectifying potassium channel) thallium flux, FluoZin2; at 10 µM; stronger effect = higher value; submaximal glutamate (EC20) added with thallium
UniProt P70579, sequence (P70579 whole entry, looked up): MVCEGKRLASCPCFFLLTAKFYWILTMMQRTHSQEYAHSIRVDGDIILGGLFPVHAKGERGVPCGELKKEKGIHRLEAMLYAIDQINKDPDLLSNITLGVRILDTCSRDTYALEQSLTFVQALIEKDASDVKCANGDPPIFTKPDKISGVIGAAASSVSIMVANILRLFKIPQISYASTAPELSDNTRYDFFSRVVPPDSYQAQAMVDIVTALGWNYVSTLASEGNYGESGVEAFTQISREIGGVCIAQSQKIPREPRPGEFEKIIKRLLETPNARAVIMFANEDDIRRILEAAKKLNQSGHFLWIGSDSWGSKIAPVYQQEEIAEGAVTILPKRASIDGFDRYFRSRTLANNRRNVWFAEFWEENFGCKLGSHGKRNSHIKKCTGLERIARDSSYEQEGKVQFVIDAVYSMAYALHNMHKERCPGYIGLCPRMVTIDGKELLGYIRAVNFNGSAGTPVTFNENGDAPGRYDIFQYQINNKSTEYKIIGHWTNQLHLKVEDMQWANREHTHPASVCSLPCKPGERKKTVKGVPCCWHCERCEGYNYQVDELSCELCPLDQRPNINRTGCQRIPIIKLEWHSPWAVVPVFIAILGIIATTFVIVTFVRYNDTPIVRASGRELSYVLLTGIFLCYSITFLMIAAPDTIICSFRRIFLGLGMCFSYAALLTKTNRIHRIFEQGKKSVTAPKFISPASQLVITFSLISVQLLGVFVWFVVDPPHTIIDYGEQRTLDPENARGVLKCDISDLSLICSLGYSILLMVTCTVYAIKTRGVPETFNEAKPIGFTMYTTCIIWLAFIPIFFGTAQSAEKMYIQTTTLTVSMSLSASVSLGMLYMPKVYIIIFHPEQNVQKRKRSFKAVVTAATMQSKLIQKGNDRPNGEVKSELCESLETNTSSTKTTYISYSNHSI

Row | SMILES | z-score
1 | CCOC(=O)c1ccc(NC(=O)c2cc(OC)c(OC)c(OC)c2Br)cc1 | 0.551
2 | CCN(CC)S(=O)(=O)c1ccc(NC(=S)NC(=O)C(C)C)cc1 | -0.187
3 | O=C(NCCC1=CCCCC1)C(=O)NCc1ccccc1Cl | -0.0505
4 | O=C1CC(c2ccc(F)cc2)c2cc3c(cc2N1)CCC3 (centres undefined) | -0.285
5 | CCOC(=O)c1cnc(SCc2nc(N)nc(Nc3ccc(OC)cc3)n2)nc1N | 0.531
6 | CCCc1nc(SCC(=O)Nc2cc(C)on2)c2ccccc2n1 | -0.23
7 | COc1cccc(NC(=O)CCN2CCC(C(N)=O)CC2)c1 | -0.262
8 | COc1ccc(-c2nn(C)c(=O)c3ccccc23)cc1NC(=O)COc1ccc(C)cc1 | -0.898
9 | Cc1sc(NC(=O)Cn2nc(C(F)(F)F)cc2C)c(C(=O)OC(C)C)c1C | 0.0391
10 | CC1=NN(c2nc(-c3ccc(Cl)cc3)cs2)C(=O)C1 | -0.244
11 | O=C1CC(CCC(=O)NC2CC2)c2ccccc2N1 (centres undefined) | -0.56
12 | CC(C)(C)CC(C)(C)NC(=O)CSCC(=O)Nc1ccc2ccccc2c1 | -0.11
13 | Cc1oc2c(cc(NS(=O)(=O)c3ccc4c5c(cccc35)C(=O)N4)c3ccccc32)c1C(=O)OC(C)C | -0.964
14 | CCOC(=O)N1CCN(C(=O)c2ccccc2N(C)S(C)(=O)=O)CC1 | 0.134
15 | CCOC(=O)C(C)Oc1cccc2c(=O)n(CC(=O)N3CCN(C(=O)OCC)CC3)ccc12 (centres undefined) | -0.125
16 | CCN(CC)S(=O)(=O)c1ccc(OC(C)C)nc1 | -0.0988
17 | CC(C)COC(=O)c1ccc2c(c1O)C(=O)c1ccccc1C2=O | 0.968
18 | Cc1ccc(-c2ccc(SCC(=O)N3CCc4ccccc43)nn2)cc1 | -0.273
19 | COc1ccc(C(=O)Oc2cccnc2)cc1OC | -0.869
20 | S=C1NCCOCCNC(=S)NCCOCCOCCOCCN1 | -0.0593
21 | CCCC(=O)N1CCN(c2ccc(NC(=S)NC(=O)CC)cc2)CC1 | -0.0482
22 | CC1=NN(c2ccc(F)cc2)C(=O)C1C(c1cccc(O)c1)c1c(C)[nH]n(-c2ccc(F)cc2)c1=O (centres undefined) | -0.0779

Row | SMILES | z-score
23 | N#Cc1c(OCC(=O)c2ccccc2)nc2c(c1-c1ccco1)CCc1ccccc1-2 | 0.364
24 | COc1ccc(/C=c2/sc3n(c2=O)NC2(c4ccccc4)N(C)C(=O)N(C)C2(c2ccccc2)N=3)cc1 (centres undefined) | 0.168
25 | Cn1c(N2CCCC2)nc2c1c(=O)n(Cc1ccc(Cl)cc1)c(=O)n2C | active: 3.05
26 | Cn1c(=O)[nH]c(=O)c2c1nc(N1CCCC1)n2CCSc1nc2ccccc2[nH]1 | -0.145
27 | COc1ccc2c(c1OC)C(=O)N(c1ncn[nH]1)C2 | -0.176
28 | COc1cc(/C=N/Nc2nc(Nc3ccc(C)cc3)nc(-n3nc(C)cc3C)n2)cc(OC)c1OC | -0.19
29 | Cc1c(/C=N\NC(=O)c2csc3ccccc23)cnn1C | -0.0977
30 | CCC(C)(C(=O)NC1CCCC1)N(C(C)=O)c1ccc(C)cc1 (centres undefined) | -0.736
31 | COc1ccc(/C=N/NC(=O)c2ccccc2O)cc1Cn1cc(Cl)cn1 | -0.142
32 | O=C(CN1CCN(CC(=O)Nc2ccccc2Cl)CC1)Nc1ccc2c(c1)OCCO2 | -0.684
33 | CCOc1ccc(S(=O)(=O)Nc2cccc(OC)c2)cc1 | 0.0407
34 | O=C(NCc1cccs1)c1nc2c(nnn2Cc2ccccc2Cl)c(=O)[nH]1 | active: -3.23
35 | COc1cccc(-n2c(SCC(=O)NC3CCCCC3)nc3n[nH]c(C)c3c2=N)c1 | -0.531
36 | COC(=O)Nc1sc2c(c1C(N)=O)CCCCCC2 | 0.12
37 | O=C1CC(c2ccc(S(=O)(=O)NCCOc3ccccc3)cc2)CN1 (centres undefined) | 0.129
38 | Cc1cc(=O)[nH]c(SCc2cc(=O)n3nc(C)sc3n2)n1 | -0.453
39 | COC(=O)c1ccc(C(=O)OC)c(NC(=S)N2CCN(c3cccc(Cl)c3)CC2)c1 | 0.0966
40 | CNC(=O)N(O)C1N(C)C(=O)N(Cc2ccccc2)C1(C)C (centres undefined) | 0.356
41 | CCOc1ccc(NC(=O)C2CC(=O)N=C(N)S2)cc1 (centres undefined) | -0.112
42 | Cc1ccccc1C(=NCCCN(C)C)c1ccccc1C | 0.825
43 | O=[n+]1c2c(n([O-])c3ccccc31)CCCC2 | -0.139
44 | COc1cc(NS(=O)(=O)c2ccc(OC)c(OC)c2)cc(OC)c1 | 0.251

Row | SMILES | z-score
45 | Cc1c(NC(=O)CSc2ccccn2)c(=O)n(-c2ccccc2)n1C | -0.147
46 | O=C(Cn1nnc2ccccc21)N/N=C\c1cccs1 | 0.71
47 | Cc1nn(CCC#N)c(NC(=O)c2ccc(Cl)cc2Cl)c1P(=O)(Nc1ccc([N+](=O)[O-])cc1)N1CCOCC1 (centres undefined) | -0.0204
48 | CCOC(=O)N/N=C/c1cc(C)n(-c2ccccc2)c1C | -0.188
49 | Cc1cc(=O)oc2cc(OCC3CC(c4ccc(N(C)C)cc4)=NO3)ccc12 (centres undefined) | -0.39
50 | CCOc1ccc2nc(SCC(=O)NC(=O)NCc3ccco3)[nH]c2c1 | 0.242
51 | CC(C)COC(=O)c1cccc2c1-c1ccccc1/C2=N\O | -0.108
52 | CCC(C)Nc1c2c(nc3c(-c4ccccc4)c(C)nn13)CCC2 (centres undefined) | -1.03
53 | Cc1cc(C)nc(NC(=O)/C=C/c2ccccc2Cl)n1 | -0.167
54 | COc1ccc2cc(-c3csc(-c4cccnc4)n3)ccc2c1 | -0.181
55 | S=c1[nH]cnc2scc(-c3ccccc3)c12 | active: 13.1
56 | O=C(N/N=C/c1cccc(C(F)(F)F)c1)C1CCN(c2ncc(C(F)(F)F)cc2Cl)CC1 | -0.0281
57 | Cc1ccc(C2=NC(C)(C)NC2=O)cc1 | -0.119
58 | Cc1ccc(N2C(=O)C3ON(c4ccccc4)C(c4ccncc4)C3C2=O)cc1 (centres undefined) | -0.103
59 | C=CCn1c(SCC(=O)c2ccc(Cl)s2)nc2ccccc2c1=O | -0.205
60 | CC(=O)Nc1cccc(-c2nnc3n2CC(C)S3)c1 (centres undefined) | -0.767
61 | CC(C)CNC(=O)COC(=O)CCC(=O)c1cccs1 | -0.168
62 | O=C(CSc1ncccn1)N/N=C/c1cccc([N+](=O)[O-])c1 | 1.35
63 | Cc1cccc(Nc2nnc(SCC(=O)NC3CCCc4ccccc43)s2)c1 (centres undefined) | 0.0545
64 | Cc1nc(C)c(C(=O)C2=C(O)C(=O)N(CCN3CCOCC3)C2c2cccnc2)s1 (centres undefined) | 0.383
65 | CCCCCCOC(=O)C(C#N)c1nc2ccccc2nc1N1CCN(C)CC1 (centres undefined) | 2.73
66 | COc1ccc(OC)c(NC(=O)Cc2coc3ccc4ccccc4c23)c1 | 0.566

Row | SMILES | z-score
67 | CC(Oc1ccc(Cl)cc1)C(=O)OCC(=O)Nc1ncc(Cl)cc1Cl (centres undefined) | -0.547
68 | O=C(COc1ccccc1O)NNc1ccccc1 | -0.209
69 | N/C(=N\OC(=O)c1ccco1)c1cccc(Br)c1 | -0.427
70 | CC(C)Sc1nnc(CNC(=O)C23CC4CC(CC(C4)C2)C3)n1Cc1ccccc1 | 0.152
71 | CCOC(=O)CSc1nc2ccc(C)cc2cc1C#N | -0.778
72 | O=C(CSc1nnc(-c2cccnc2)s1)Nc1cccc(C(=O)O)c1 | -0.0443
73 | O=C1Cc2ccccc2Sc2c(OCCN3CCCCC3)cccc21 | -0.927
74 | Cc1ccc(C(c2nnnn2CS(=O)(=O)c2ccc(C)cc2)N2CCN(c3ncccn3)CC2)cc1 (centres undefined) | -0.145
75 | Cc1ccc(C)c(NC(=S)NC(NC(=O)OCc2ccccc2)C(Cl)(Cl)Cl)c1 (centres undefined) | -0.108
76 | CCOc1ccc(Cn2nnc(C(=O)NCc3ccccc3)c2N)cc1 | -0.258
77 | Cc1ccc(CC(CC(=O)O)C(=O)NCc2ccccc2)cc1 (centres undefined) | 0.117
78 | Cc1[nH]n(-c2ccccc2)c(=O)c1/C=N/O | -0.187
79 | COc1ccccc1N(CC(=O)NCC1CCCO1)C(=O)CNS(=O)(=O)c1ccc(C)cc1 (centres undefined) | -0.0736
80 | CCOC(=O)c1nnc2cc(-c3ccccc3)nn2c1C | -0.324
81 | Cc1ccnc(NS(=O)(=O)c2ccc(NC(=O)C3CCCO3)cc2)n1 (centres undefined) | -0.306
82 | CCOC(=O)C1=C(C)NC(SCC(=O)O)=C(C#N)C1c1ccco1 (centres undefined) | -0.159
83 | O=C(CN(Cc1cccs1)C(=O)CNS(=O)(=O)c1ccc(Cl)cc1)NCc1ccco1 | -0.251
84 | COC(=O)C1CCN(C(=O)CN2C(=O)NC(CCc3ccccc3)C2=O)CC1 (centres undefined) | 0.0366
85 | CCn1c(O)c(N=NC(=O)c2cccc(S(=O)(=O)N3CCCCC3)c2)c2ccccc21 | -0.282
86 | Cc1cc(-c2[nH]nc3c2C(c2cccc(O)c2)C(C#N)=C(N)O3)c(C)s1 (centres undefined) | -0.239
87 | O=C(/C=C/c1ccc(F)cc1)NCc1ccco1 | -0.151
88 | COc1ccccc1N1CCN(S(=O)(=O)c2ccccc2F)CC1 | -0.52

Row | SMILES | z-score
89 | Nc1nc(SCC(=O)Nc2cc(-c3ccccc3)nn2-c2ccccc2)n[nH]1 | 0.218
90 | CC(C)NC1=C(Cl)C(=O)c2ccccc2C1=O | -0.413
91 | O=C(Nc1ccc([N+](=O)[O-])c(NC(=O)C2CCCO2)c1)C1CCCO1 (centres undefined) | -0.175
92 | Cn1c(CN2CCC(C(N)=O)CC2)c(C#N)c2ccccc21 | -0.956
93 | CCSc1nnc(-c2cccnc2)n1-c1ccc(Cl)c(C)c1 | -0.094
94 | Cc1cc(C)nc(SCc2cc(=O)c(OC(=O)c3cc([N+](=O)[O-])ccc3Cl)co2)n1 | -0.614
95 | O=C(/C=C/c1ccco1)Nc1ccc(Oc2ccccc2)cc1 | -0.169
96 | Nc1ncnc2nc(SCCOc3ccc(Cl)cc3)[nH]c12 | 1.42
97 | O=C(O)c1ccc(COc2ccc3c4c(c(=O)oc3c2)CCC4)o1 | 0.0617
98 | Cc1ccc(N(CCC(=O)O)S(=O)(=O)c2ccccc2)cc1 | 0.153
99 | CC1CCCCC1NC(=O)CN1C(=O)NC(Cc2ccccc2)(Cc2ccccc2)C1=O (centres undefined) | -0.2
100 | O=C1C2CCC(C(O)C2)N1Cc1ccccc1 (centres undefined) | -0.15
101 | Cc1c(C(=O)c2cccc([N+](=O)[O-])c2)c2ccccn2c1CCC#N | -0.451
102 | O=c1cc(-c2ccccc2)nc2nc(CCc3ccccc3)[nH]n12 | -1.32
103 | CCc1nnc(NC(=O)CSc2nnc(-c3ccccc3OC)n2-c2ccccc2)s1 | -0.755
104 | COc1ccc(-n2nnnc2-c2cnc3cc4c(cc3c2C)OCO4)cc1 | -0.252
105 | CC1CCCCN1Cc1ccc(N(C)C)cc1 (centres undefined) | -0.0979
106 | CS(=O)(=O)N(CC(=O)Nc1ccccc1C(=O)N1CCOCC1)c1ccccc1 | -0.176
107 | CC(NC(=O)c1ccc(Cl)cc1)C(=O)NC1=NCCS1 (centres undefined) | -0.0564
108 | O=c1c2ccccc2sn1-c1cc(S(=O)(=O)N2CCOCC2)ccc1N1CCCC1 | -0.388
109 | Clc1ccc(N2COC3c4cccc5cccc(c45)C32)cc1 (centres undefined) | -0.682
